Experimental data: PMC4336329 (PLoS ONE, 2015)
The campaign covered roughly 310,000 compounds. About 2,200 (0.71%) showed an effect of 50% or more. The effect is printed as a negative number. The list shows a part of the results.

What follows are molecules tested against human ether-à-go-go-related gene (hERG) potassium channel (human, UniProt Q12809) (assay: primary screen, population patch clamp on CHO cells stably expressing hERG).
Chain of human ether-à-go-go-related gene (hERG) potassium channel (Q12809 whole entry, looked up): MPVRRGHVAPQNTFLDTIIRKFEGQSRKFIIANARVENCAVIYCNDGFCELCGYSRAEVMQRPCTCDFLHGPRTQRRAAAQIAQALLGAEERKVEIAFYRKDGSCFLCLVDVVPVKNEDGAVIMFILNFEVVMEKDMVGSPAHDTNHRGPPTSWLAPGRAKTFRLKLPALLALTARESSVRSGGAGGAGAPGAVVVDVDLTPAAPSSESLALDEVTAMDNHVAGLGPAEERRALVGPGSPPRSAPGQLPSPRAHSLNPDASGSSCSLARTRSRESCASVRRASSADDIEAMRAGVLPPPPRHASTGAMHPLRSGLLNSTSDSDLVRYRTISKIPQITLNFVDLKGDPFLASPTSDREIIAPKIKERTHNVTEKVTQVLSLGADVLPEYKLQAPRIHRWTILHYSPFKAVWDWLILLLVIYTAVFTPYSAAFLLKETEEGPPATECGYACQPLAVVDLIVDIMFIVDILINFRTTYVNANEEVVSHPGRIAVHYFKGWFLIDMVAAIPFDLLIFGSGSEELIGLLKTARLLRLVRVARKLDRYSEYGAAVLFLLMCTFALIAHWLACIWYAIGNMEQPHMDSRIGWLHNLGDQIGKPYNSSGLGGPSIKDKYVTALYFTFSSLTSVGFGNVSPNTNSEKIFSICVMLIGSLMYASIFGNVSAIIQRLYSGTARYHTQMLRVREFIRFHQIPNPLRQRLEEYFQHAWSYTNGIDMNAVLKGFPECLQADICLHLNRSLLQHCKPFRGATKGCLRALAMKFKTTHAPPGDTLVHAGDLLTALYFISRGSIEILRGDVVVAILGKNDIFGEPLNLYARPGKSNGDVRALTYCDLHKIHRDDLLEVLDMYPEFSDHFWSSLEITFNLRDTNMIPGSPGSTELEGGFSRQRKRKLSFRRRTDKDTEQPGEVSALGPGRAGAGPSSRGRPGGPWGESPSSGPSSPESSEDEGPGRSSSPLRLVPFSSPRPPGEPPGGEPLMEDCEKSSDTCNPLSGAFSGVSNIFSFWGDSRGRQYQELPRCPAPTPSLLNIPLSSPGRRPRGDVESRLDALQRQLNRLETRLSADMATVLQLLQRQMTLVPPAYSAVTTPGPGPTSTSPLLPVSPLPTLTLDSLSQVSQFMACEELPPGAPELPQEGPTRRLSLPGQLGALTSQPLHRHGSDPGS

In order of falling “hERG current change (%, negative = inhibition) at 1uM” value:
1. CCNC(=S)NCCC1=c2ccccc2=N/C1=C\c1c(O)n(C)c(=O)n(C)c1=O  22.5%
2. Cc1ccc(C)c(S(=O)(=O)N2CCCC2CNC(=O)C(=O)NCCc2ccco2)c1 (stereo not drawn)  21.1%
3. CCc1ccc(Nc2nc(N)nc(CSc3nnnn3-c3ccccc3)n2)cc1  20.7%
4. FC(F)(F)C(Oc1nc(NC2CCCCC2)nc(N2CCOCC2)n1)C(F)(F)F  19.9%
5. CN(CC(=O)Nc1cccc(F)c1)C(=O)c1ccccc1Cc1ccccc1  19.5%
6. CCn1c(SCC(=O)N(C)c2ccccc2)nc2c([nH]c3ccccc32)c1=O  17.3%
7. CC(C)(C)NC(=O)C(c1ccc(O)cc1)N(C(=O)CCC(=O)Nc1nccs1)c1ccccc1F (stereo not drawn)  14.7%
8. C=CCNC(=O)C1CCCN(S(C)(=O)=O)C1 (stereo not drawn)  14%
9. Cc1cccc2c1N(C(=O)c1ccco1)C(C)(C)c1ssc(=S)c1-2  14%
10. Cc1oc(-c2cccc(Cl)c2)nc1CN1CCC(C(=O)NCCCN2CC(C)CC(C)C2)CC1 (stereo not drawn)  13.9%
11. Cc1ccccc1N=Cc1cccc(O)c1O  13.9%
12. COc1cccc(CN2CCN(Cc3ccon3)CC2CCO)c1 (stereo not drawn)  13.4%
13. C=CCSc1nc(C)c(CC(=C)C)c(=O)[nH]1  13.4%
14. COc1ccc(OC)c(/C=C/C(=O)Oc2ccc(C(C)=O)cc2)c1  13.3%
15. O=C(COC(=O)c1ccc(S(=O)(=O)N2CCCCCC2)cc1)NCc1ccc(Cl)cc1  13%
16. Cc1ccc(NC(=O)Cn2nnc(-c3ccccc3-n3cnnn3)n2)c(C)c1  12.9%
17. COc1ccc(/C=C(/C#N)c2cccnc2)cc1OC  12.8%
18. CC1CCN(CCCn2c(=S)[nH]c3c(sc4ccc([N+](=O)[O-])cc43)c2=O)CC1.Cl  12.7%
19. O=C(CCC(=O)N(CC(=O)NC1CCCC1)Cc1ccc(F)cc1)Nc1nccs1  12.5%
20. COCCn1c(SCC(=O)Nc2ccc(OC)cc2)nnc1-c1ccoc1C  12.2%
21. N#C/C(=C\c1ccncc1)C(=O)Nc1ccc(C(=O)O)cc1  12%
22. COC(=O)c1ccc(N2C(=O)CC(N(C)CCc3ccc(OC)c(OC)c3)C2=O)cc1 (stereo not drawn)  11.8%
23. O=C(CCc1nnc(COc2ccccc2)o1)NCc1ccc(Cl)s1  11.8%
24. Cc1nc2ccccc2n1/C(=N/S(=O)(=O)c1ccc(Br)cc1)c1ccccc1  11.6%
25. COc1ccc(OC)c(-c2csc(-c3cccs3)n2)c1  11%
26. CC(C)c1ccccc1NC(=O)COC(=O)CNC(=O)c1ccc(Br)cc1  11%
27. Cc1ccc(C2CC(=O)c3cnc(N4CCc5ccccc5C4)nc3C2)cc1 (stereo not drawn)  10.7%
28. Cc1cc(OCC(=O)Nc2ccncc2)cc(C)c1Br  10.2%
29. Cc1ccc(C(=O)c2ncc[nH]2)cc1  10.2%
30. NC(=O)CN1C(=O)C(=O)N(Cc2ccccc2Cl)C1=O  10.1%
31. COc1ccc(-c2nnc(OCc3ccccc3)c3ccccc23)cc1  9.38%
32. Cc1cccc(NC(=O)N2CCC(NC(=O)c3ccco3)CC2)c1  9.14%
33. COCCNC(=O)CSc1nc(-c2ccc(OC)c(OC)c2)cc(C(F)(F)F)n1  8.93%
34. O=c1[nH]n2c(C(F)(F)F)cc(C3CC3)nc2c1N=Nc1ccccc1  8.92%
35. CC(=O)c1ccc(NS(=O)(=O)c2ccc(N)cc2)cc1  8.49%
36. CCN1CCN(c2ccc(NC(=O)c3cc(OC)c(OC)c(OC)c3)cc2)CC1.Cl  8.41%
37. CCCn1c(N)c(N(CCOC)C(=O)c2ccc(N3CCCC3=O)cc2)c(=O)[nH]c1=O  8.2%
38. Cc1ccc(C2C(C#N)=C(N)Oc3cc(C)oc(=O)c32)o1 (stereo not drawn)  7.58%
39. Cc1ccc(-c2cc(C(F)F)n3ncc(C(=O)Nc4cn(C)nc4C)c3n2)cc1  7.44%
40. N#Cc1ccc(NC(=S)NCCN2CCOCC2)cc1  7.42%
41. COc1ccc(NN=Nc2nc3c([nH]2)c(=O)n(C)c(=O)n3C)cc1  7.39%
42. O=S(=O)(Nc1ccc(F)cc1)N1CCOCC1  6.74%
43. C/C(=C\c1ccccc1)C(=O)NCCCn1ccnc1  6.52%
44. CNC(=S)N/N=C/c1ccc(-c2cccc(C(=O)O)c2)o1  6.18%
45. O=[N+]([O-])c1cc([N+](=O)[O-])c(N2CCCCCC2)cc1NCCO  6.14%
46. CCCCCC(C(=O)O)C(C)CC(=O)NC1CCCCC1 (stereo not drawn)  6.06%
47. CC1(C)Cc2c(sc(NC(=O)c3ccc(C(=O)c4ccccc4)cc3)c2C#N)C(C)(C)N1  5.7%
48. CC(=O)Nc1cc(C(=O)O)ccc1S(=O)(=O)c1ccc(Cl)cc1  5.6%
49. O=C(NC1=NCCS1)c1csc2ccccc12  5.26%
50. CN1CCN(c2ccc(Cl)cc2NS(=O)(=O)c2ccccc2Cl)CC1  5.2%
51. Cc1ccccc1C(=O)NNC(=O)CSc1nnc(-c2ccncc2)n1-c1ccccc1  4.94%
52. CCO[C@@H]1OC(C(=O)NC2CC2)=C[C@H](c2c[nH]c3ccccc23)[C@H]1CCCO  4.87%
53. S=C1NCN(Cc2ccco2)CN1CCc1ccccc1  4.64%
54. CCC/C(O)=C1\C(=O)CCCC1=NCCc1c(C)[nH]c2ccccc12  4.61%
55. C=CC[N+]1(CC#CCOC(c2ccccc2)c2ccccc2)CCOCC1.[Cl-]  4.52%
56. COC(=O)c1cc(NS(=O)(=O)c2ccc(N3CCCCC3)c([N+](=O)[O-])c2)cc(C(=O)OC)c1  3.15%
57. COc1ccc(-c2cccc(NS(=O)(=O)c3ccc([N+](=O)[O-])cc3)c2)nn1  2.94%
58. O=C(NCc1cccnc1)C1CCC(CNS(=O)(=O)c2ccc(Cl)cc2)CC1 (stereo not drawn)  2.81%
59. CCOC(=O)c1nc(C)sc1-c1ccnn1S(=O)(=O)c1ccc(Cl)cc1Cl  2.77%
60. COc1ccccc1NC(=O)C1(C)Cc2ccccc2C(=O)O1 (stereo not drawn)  2.39%
61. CCOCCn1c(N2CCN(c3ccc(OC)cc3)CC2)nc2c1c(=O)[nH]c(=O)n2C  2.36%
62. CCSc1nc2ccccc2n1C(=O)c1ccc(S(=O)(=O)N2CCCCCC2)cc1  1.78%
63. Cc1ccccc1NC(=O)C(C)n1c2ccccc2c2nc(=O)cc(C)n21 (stereo not drawn)  1.58%
64. Cn1c(=O)c2c(-c3ccccc3)n(-n3cnnc3)cc2n(C)c1=O  1.24%
65. COCn1cnc(-c2ccccc2)c1-c1ccccc1  1.15%
66. COc1ccc2nc(NC(=O)CSc3nnc4n3C(C)(C)Cc3ccccc3-4)sc2c1  0.699%
67. O=C(NCCc1cccc(Cl)c1)c1cccs1  0.471%
68. COc1ccc2c(c1OC)C(=O)O[C@@H]2[C@H]1c2cc3c(cc2CCN1C)OCO3.Cl  0.42%
69. COc1cccc(C(=O)O/N=C(\C)c2cnccn2)c1  0.287%
70. NC(=O)CC(NC(=O)Cc1ccc(Cl)cc1)c1ccc(NCc2ccccc2)c([N+](=O)[O-])c1 (stereo not drawn)  -0.137%
71. CCOC(=O)c1ccc(N2CCN(c3ccccc3F)CC2)c(NC(=O)Nc2cccc(OC)c2)c1  -0.332%
72. CCCC(C(=O)NCc1ccc(OC)cc1)N(Cc1ccco1)C(=O)c1snc(C(N)=O)c1N (stereo not drawn)  -0.996%
73. CCOC(=O)N1CCN(c2c(NCCc3ccc(C)cc3)c(=O)c2=O)CC1  -1.23%
74. CCc1cccc(OCC(=O)Nc2cc(Cl)ccc2-n2cncn2)c1  -1.27%
75. CC(C)/C=N/NC(=O)c1cc(Br)ccc1O  -1.33%
76. O.S=c1nc[nH]c2nc[nH]c12  -1.51%
77. O=C(Nc1ccccc1)N1N=C(c2cccs2)CC1c1cccs1 (stereo not drawn)  -4.35%
78. O=C(N/N=C/c1ccc(OC2CSC2)cc1)c1ccc(CN2CCOCC2)cc1  -4.48%
79. COc1ccc2oc(C(=O)OCC(=O)Nc3cccc(S(=O)(=O)N4CCOCC4)c3)c(C)c2c1  -4.87%
80. Cn1c(=O)[nH]c(=O)c2c1nc(N1CCOCC1)n2CC(O)COc1ccc2ccccc2c1 (stereo not drawn)  -5.43%
81. CCCCN(C)CCNC(=O)CN1C(=O)CSc2ccc(S(=O)(=O)N3CCCCC3)cc21  -6.21%
82. COc1ccc(NC(=O)COc2cccc(-n3cnnn3)c2)cc1  -7.26%
83. COC(=O)c1ccc(Oc2cc(C)nc(-n3nc(C)cc3C)n2)cc1  -14%
84. Cc1ccc(C(=O)C[n+]2ccc(Cc3ccccc3)cc2)cc1.[Cl-]  -24.7%
85. CCC(=O)N1CCN(c2ccnc3cc(Cl)ccc23)CC1  -25.7%
86. CCCCCCn1c(CN2CCCCC2C)nc2c1c(=O)n(C)c(=O)n2C (stereo not drawn)  -28.6%
87. N#Cc1ccccc1S(=O)(=O)N1CCC(C(=O)NCc2ccccc2CN2CCCC2)CC1  -45.7%
